This is one part of the list. Many values rest on one well or one pass, so single values are uncertain.

Among the test systems are A101D; A2058; A375.
Common to all, as to test: cell count relative to DMSO control; melanoma cells; higher = more viable cells
Common to all, as to details: library dose: standard library concentration; 72 h
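Note: cells treated in 1,536-well plates, then fixed and DAPI-stained, with nuclei counted from automated high-throughput microscope images.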

With `Cn1c(=O)n(-c2ccc(C(C)(C)C#N)cc2)c2c3cc(-c4cnc5ccccc5c4)ccc3ncc21` + CC(=O)c1c(C)c2cnc(Nc3ccc(N4CCNCC4)cn3)nc2n(C2CCCC2)c1=O [palbociclib] (first compound 0.02 µM, partner dose 0.2 µM), the cell count turned out to be 67.9% in the experiment on A101D, 61.6% in the experiment with A2058 and 66.3% with A375.
For `COc1ccc(C2=N[C@@H](c3ccc(Cl)cc3)[C@@H](c3ccc(Cl)cc3)N2C(=O)N2CCNC(=O)C2)c(OC(C)C)c1` [Nutlin-3] + CCN(CC)CCNC(=O)c1c(C)[nH]c(/C=C2\C(=O)Nc3ccc(F)cc32)c1C [sunitinib] (first compound 0.5 µM, partner dose 2 µM) the same measures were 52.5%, 66.9% and 73.2%.
Turning to `COc1ccc(C2=N[C@@H](c3ccc(Cl)cc3)[C@@H](c3ccc(Cl)cc3)N2C(=O)N2CCNC(=O)C2)c(OC(C)C)c1` [Nutlin-3] + Cn1nnc2c(C(N)=O)ncn2c1=O [temozolomide] (first compound 0.5 µM, partner dose 10 µM), the cell count in the experiment on A101D stood at 64%; in the experiment with A2058, 30.8%; in the experiment with A375, 69.8%.
For `Cc1cn(-c2cc(NC(=O)c3ccc(C)c(Nc4nccc(-c5cccnc5)n4)c3)cc(C(F)(F)F)c2)cn1` [nilotinib] + C[C@@H]1CCN(C(=O)CC#N)C[C@@H]1N(C)c1ncnc2[nH]ccc12 [CP690550] (first compound 1 µM, partner dose 5 µM) the same measures were 85.9%, 98% and 128%.
For `CC(C)C[C@H](NC(=O)[C@H](Cc1ccccc1)NC(=O)c1cnccn1)B(O)O` [Bortezomib] + CO[C@@H]1[C@H](N(C)C(=O)c2ccccc2)C[C@H]2O[C@]1(C)n1c3ccccc3c3c4c(c5c6ccccc6n2c5c31)C(=O)NC4 [Midostaurin] (first compound 0.005 µM, partner dose 0.4 µM) the same measures were 6.74%, 8.82% and 72.4%.
